# Laboratory results: PubChem BioAssay AID463173 (ICCB-Longwood Screening Facility, Harvard Medical School, 2010)
# In all, about 52,000 compounds went through this assay and about 1,700 (3.3%) were called active. Cut-off read from the data, not from the text of the source: active = survival mostly below about 52% (no sharp cut-off); inactive = mostly above about 56%. The list shows a part of the results.
# System: Wild type
# Assay: growth inhibition of S. aureus wild type versus tarO mutant, primary screen, teichoic acid synthesis inhibitors, RN4220, OD600 (AID 463173)
# Details: S. aureus RN4220 wild type/DeltatarO growth, OD600, 18 h, stronger effect = lower value, screened at 18.75 µg/mL (by protocol)
row,SMILES,survival
1,COC(=O)c1ccc(NC(=O)Cn2c(=O)nc(-c3ccccc3)c3ccccc32)cc1,inactive: 99%
2,CCOC(=O)c1ccc(NC(=O)Cn2ncc3c(C)n(Cc4ccccc4F)c(C)c3c2=O)cc1,inactive: 88%
3,CCCCN(C)CC(O)Cn1cc(/C=C/C(=O)c2ccc(C)cc2)c2ccccc21 (stereo not drawn),active: 15%
4,COc1ccc(NC(=O)c2c(NCc3cccs3)sc3c2CCCC3)cc1,inactive: 80%
5,O=C(Nc1ccc(C(=O)OCc2cc(=O)n3c4c(sc3n2)CCCC4)cc1)c1ccc(Cl)cc1,inactive: 81%
6,CC(C)c1ccc(NC(=O)Nc2csc3c2CCCC3)cc1,inactive: 25%
7,Cc1ccc2c(=O)cc(C(=O)Nc3c(C(=O)Nc4cccc(Cl)c4)oc4ccccc34)oc2c1,inactive: 83%
8,O=C(c1ccc(Br)s1)N(Cc1cccnc1)c1nc2ccc(F)cc2s1,inactive: 73%
9,CCOc1ccccc1NC(=O)CN1C(=O)COc2ccc(S(=O)(=O)N3CCCCC3)cc21,inactive: 96%
10,Cc1ccc(N2C(=O)CSC23C(=O)N(CC(=O)NC2CCCCC2)c2ccccc23)cc1C (stereo not drawn),inactive: 69%
11,Cn1cc(C(c2ccccc2)c2ccc(Cl)s2)c2ccccc21 (stereo not drawn),inactive: 94%
12,Cc1ccc2c(c1)c1c(n2CC(O)CN2CCCCC2)C(=O)CCC1 (stereo not drawn),inactive: 109%
13,CCOC(=O)c1c(C)oc2ncnc(Nc3cc(Cl)ccc3OC)c12,inactive: 84%
14,CSc1ncc(C(=O)NCc2ccc(C)cc2)c(-c2ccccc2)n1,active: -2%
15,Cc1ccc(CNC(=O)C2CCN(S(=O)(=O)c3c(C)noc3/C=C/c3c(C)cc(C)cc3C)CC2)cc1,inactive: 70%
16,Cc1ccc2nc(COc3ccccc3NC(=O)COc3ccccc3Cl)cc(=O)n2c1,inactive: 99%
17,CCOc1ccccc1CNC(=O)CCCN1C(=O)c2cccnc2Oc2ccc(Cl)cc21,inactive: 68%
18,COc1ccccc1Cn1c(SCC(=O)C(C)(C)C)nc2ccccc2c1=O,inactive: 89%
19,CCNC(=O)C1CCN(Cc2cc3ccccc3n2Cc2ccc(C)cc2)CC1,inactive: 85%
20,CCOC(=O)c1c(C)oc2nc(C)nc(N3CCN(c4ccc(OC)cc4)CC3)c12,inactive: 68%

row,SMILES,survival
1,O=C(c1cccn1-c1nnc(N2CCCCC2)s1)N1CCN(c2ccccc2)CC1,active: -3%
2,COC(=O)CN1C(C(=O)c2ccccc2)=C(OC(=O)c2ccc(C)cc2)c2ccccc2S1(=O)=O,inactive: 90%
3,Clc1cccc(CSc2ccc(-c3cccs3)nn2)c1,inactive: 112%
4,N#Cc1ccc(CSc2nnc(-c3ccc(Br)cc3)o2)cc1,inactive: 74%
5,CCS(=O)(=O)c1ccccc1C(=O)N1CCN(c2nc3ccccc3s2)CC1,inactive: 65%
6,CCn1c(=O)c2sccc2n2c(CCC(=O)NCc3ccc(Cl)cc3)nnc12,inactive: 75%
7,Cc1oc(-c2cccc(Cl)c2)nc1CSCC(=O)NCc1ccccc1Cl,active: -1%
8,CCOC(=O)C1CCN(C(=O)Cn2ncc3c4ccccc4n(C)c3c2=O)CC1,inactive: 73%
9,COc1ccc(CNC(=O)CCCN2C(=O)c3cccnc3Oc3ccc(Cl)cc32)cc1,inactive: 80%
10,Cc1ccc(-n2c(SCC(=O)Nc3ccc4c(c3)OCCO4)nc3c([nH]c4ccccc43)c2=O)cc1,inactive: 120%
11,Cc1cccc(NS(=O)(=O)c2nnc(NC(=O)c3cccc(C)c3)s2)c1,inactive: 63%
12,Cc1cccc(NC(=O)c2cc3c(=O)n4ccccc4nc3n2C)c1C,inactive: 84%
13,CC(C)CCNc1ccc(-c2ccc(Cl)cc2)nn1,inactive: 106%
14,CCCCNC(=O)Cn1cnc2sc(C)c(S(=O)(=O)N3CCN(c4ccccc4OC)CC3)c2c1=O,inactive: 82%
15,Cc1csc2nc(COC(=O)c3ccc(NC(=O)C(C)C)cc3)cc(=O)n12,inactive: 120%
16,CC(C)OCCCNC(=O)CN1C(=O)COc2ccc(S(=O)(=O)N3CCOCC3)cc21,inactive: 74%
17,COc1ccccc1NC(=O)c1ncoc1-c1ccco1,inactive: 55%
18,Cc1ccc(OCC(=O)Nc2sc3c(c2C(N)=O)CCCC3)c(C(C)(C)C)c1,inactive: 68%
19,COCCNC(=O)c1ccc(-c2nc(CN3CCc4ccccc43)c(C)o2)cc1,inactive: 75%
20,COc1cc(C(=O)Nc2sc(C(=O)N3CCOCC3)c(C)c2C#N)cc(OC)c1OC,inactive: 112%

row,SMILES,survival
1,O=C(Cn1ncc2c3ccccc3n(Cc3ccccc3F)c2c1=O)NCCCc1ccccc1,inactive: 91%
2,CCOc1ccc2nc(NC(=O)c3ccccc3)sc2c1,inactive: 58%
3,Cc1ccc(C(=O)Nc2ccc(Br)cc2)cc1S(=O)(=O)NCc1ccccc1,inactive: 89%
4,CCOc1ccccc1C(=O)N(Cc1ccco1)Cc1ccccc1F,inactive: 87%
5,COC(=O)c1ccccc1NC(=O)CSc1nc2nc(C)cc(C)n2n1,inactive: 69%
6,CCc1nc2ccc(C(=O)NCc3cccc(Br)c3)cc2nc1CC,inactive: 75%
7,O=c1c(N2CCCCC2)csc2ccc(F)cc12,inactive: 68%
8,COc1ccc(-c2nc3ccccc3s2)cc1NC(=O)COc1cccc(C)c1,inactive: 39%
9,CCc1ccc(S(=O)(=O)Nc2cc3c(cc2N2CCOCC2)n(C)c(=O)c(=O)n3C)cc1,active: 1%
10,CCOc1ccc(NC(=O)C(=O)NCCc2ccccc2)cc1,inactive: 84%
11,CC(C)OC(=O)CSc1nnc(-c2ccc(O)cc2)o1,inactive: 92%
12,O=C(Cn1c(=O)n(CCCS(=O)(=O)C2CCCCC2)c(=O)c2ccccc21)Nc1ccc(F)c(Cl)c1,inactive: 99%
13,COc1ccc(C)cc1NC(=O)N1CCN(c2nnc(C)c3c(C)n(-c4ccccc4)nc23)CC1,inactive: 69%
14,Cc1cc(C)cc(NC(=O)CCCn2c(=O)c3cccn3c3ccccc32)c1,inactive: 85%
15,C=CCN1C(=O)CN=C1NCc1ccccc1,inactive: 99%
16,CCOc1ccc(NC(=O)CC2C(=O)N(c3ccccc3)C(=O)N2Cc2cccc(OC)c2)cc1 (stereo not drawn),inactive: 75%
17,COCCCNC(=O)c1nn(-c2ccc(C)cc2)c(=O)n(C)c1=O,inactive: 77%
18,O=C(c1cnc(N2CCCCC2)c2ccccc12)N1CCN(c2cccc(Cl)c2)CC1,inactive: 68%
